Data reported in PMC4336329 (PLoS ONE, 2015).
Out of some 310,000 compounds screened, about 14,000 (4.5%) showed an effect of 50% or more. Effects have a minus sign here. Some of the results follow.

Each compound was assayed against human ether-à-go-go-related gene (hERG) potassium channel (human, UniProt Q12809) (assay: primary screen, population patch clamp on CHO cells stably expressing hERG).
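Further: peak tail current of the secondary pulse compared with the same well before compound.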

Chain of human ether-à-go-go-related gene (hERG) potassium channel (Q12809 whole entry, looked up): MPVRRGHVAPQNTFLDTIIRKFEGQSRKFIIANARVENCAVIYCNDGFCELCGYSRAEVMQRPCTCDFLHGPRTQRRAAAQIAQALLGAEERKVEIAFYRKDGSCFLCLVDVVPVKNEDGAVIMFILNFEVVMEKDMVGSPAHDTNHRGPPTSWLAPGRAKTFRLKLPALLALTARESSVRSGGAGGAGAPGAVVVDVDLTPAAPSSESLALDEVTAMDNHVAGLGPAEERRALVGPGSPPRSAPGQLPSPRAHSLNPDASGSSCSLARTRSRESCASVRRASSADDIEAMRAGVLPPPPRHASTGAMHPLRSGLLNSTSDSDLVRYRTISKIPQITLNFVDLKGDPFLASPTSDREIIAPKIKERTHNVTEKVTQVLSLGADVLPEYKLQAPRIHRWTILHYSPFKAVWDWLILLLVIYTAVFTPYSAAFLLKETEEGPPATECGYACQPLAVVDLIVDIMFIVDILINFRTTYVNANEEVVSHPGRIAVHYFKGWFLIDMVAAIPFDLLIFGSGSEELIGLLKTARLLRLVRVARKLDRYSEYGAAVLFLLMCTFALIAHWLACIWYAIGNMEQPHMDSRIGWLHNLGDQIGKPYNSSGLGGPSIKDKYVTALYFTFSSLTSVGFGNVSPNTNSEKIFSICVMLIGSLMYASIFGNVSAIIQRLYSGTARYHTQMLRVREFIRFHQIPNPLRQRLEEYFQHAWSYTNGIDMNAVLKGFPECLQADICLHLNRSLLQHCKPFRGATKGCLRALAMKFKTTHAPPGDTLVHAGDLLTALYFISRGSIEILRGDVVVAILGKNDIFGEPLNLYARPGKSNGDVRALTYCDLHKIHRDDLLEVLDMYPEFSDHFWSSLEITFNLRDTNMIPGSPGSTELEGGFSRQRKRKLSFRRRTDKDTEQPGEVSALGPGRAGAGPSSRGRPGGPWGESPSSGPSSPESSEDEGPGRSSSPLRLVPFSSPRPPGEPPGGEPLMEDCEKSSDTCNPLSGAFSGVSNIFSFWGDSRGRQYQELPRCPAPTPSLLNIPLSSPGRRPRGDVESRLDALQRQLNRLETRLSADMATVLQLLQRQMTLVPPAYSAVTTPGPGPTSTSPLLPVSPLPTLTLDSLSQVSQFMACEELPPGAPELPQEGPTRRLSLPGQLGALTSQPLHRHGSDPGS

SMILES	hERG current change (%, negative = inhibition) at 10uM
COc1cc2ncnc(NCc3ccccc3C)c2cc1OC	-7.36%
CCCCNC(=O)CSc1nc(N)c(C(=O)Nc2ccc(OC)cc2)s1	-11.3%
CC[n+]1cccc(-c2nc3ccccc3s2)c1.[I-]	-0.683%
COc1cc(C)c(Cl)cc1S(=O)(=O)N(C)C	1.59%
Cc1ccc(N2C(=O)C3C(C2=O)C2C=CC3C23CC3)cc1 (stereo not drawn)	-5.56%
COc1ccc(/C=C(/NC(=O)c2ccc(Br)cc2)C(=O)N2CCOCC2)cc1	5.5%
C=C1CCN([C@@H](C)C(=O)NCc2ccc(OC)cc2)S(=O)(=O)c2ccccc21	-6.66%
O=C1CCC/C(=N/NC(=O)c2ccc(NS(=O)(=O)c3cccs3)cc2)C1	12.9%
O=[N+]([O-])c1cccc(/C=C/c2nc3ccc([N+](=O)[O-])cc3[nH]2)c1	-10.1%
O=C1c2ccccc2C(O)N1Cc1ccco1 (stereo not drawn)	10.1%
CC(CNCC1CCCO1)COc1ccccc1.O=C(O)C(=O)O (stereo not drawn)	16.3%
CCC(=O)NC(=S)NNC(=O)c1ccc(NC(=O)c2ccccc2)cc1	-2.15%
CCC(C(=O)Nc1c[nH]c(=O)[nH]c1=O)c1ccccc1 (stereo not drawn)	16.1%
Cc1noc(C)c1C(=O)N1CCN(S(=O)(=O)c2cccc(Cl)c2Cl)CC1	-9.11%
COc1ccc(C)cc1NC(=O)CSc1nc2scc(C)c2c(=O)[nH]1	14.8%
CC1(C)CC(C(CC(=O)N2CCCC2)Cc2ccccc2)CCO1 (stereo not drawn)	-12.8%
CC(C)(C)C(=O)Nc1ncccc1C(O)c1cccc(C(F)(F)F)c1 (stereo not drawn)	13.9%
COc1cccc(OC)c1C(=O)NC(=S)Nc1ccc2c(c1)Cc1ccccc1-2	2.49%
CCCCn1c(N)c(N(CCOC)C(=O)c2ccc(Cl)c(S(=O)(=O)N3CCCCC3)c2)c(=O)[nH]c1=O	11.8%
CCCCCn1c(=O)[nH]c2cc(C(=O)NCCN3CCCCC3C)ccc2c1=O (stereo not drawn)	-15.9%
CS(=O)(=O)c1sc2nc(-c3ccccc3)cc(-c3ccccc3)c2c1N	9.12%
Cc1cc2c(cc1S(=O)(=O)CCC(=O)NC1CCC(C)CC1)OCC(=O)N2 (stereo not drawn)	-14.7%
COc1cc(C(=O)N/N=C(\C)c2ccccn2)cc(OC)c1OC	9.93%
O=C(N/C(=C/C=C/c1ccccc1)C(=O)N1CCOCC1)c1ccccc1Cl	-16.6%
